One test concerns the target GST-fused NCOA2 (human) (UniProt Q15596). The experiment in a line: pull-down; both purified.
Test [1] deals with Flag-tagged RTA-△PARS-II (Kaposi's sarcoma-associated herpesvirus (KSHV)) (UniProt F5HCV3). The experiment in a line: co-IP.

Chains of the proteins cited; added tags and fusions are not shown.
UniProt Q15596: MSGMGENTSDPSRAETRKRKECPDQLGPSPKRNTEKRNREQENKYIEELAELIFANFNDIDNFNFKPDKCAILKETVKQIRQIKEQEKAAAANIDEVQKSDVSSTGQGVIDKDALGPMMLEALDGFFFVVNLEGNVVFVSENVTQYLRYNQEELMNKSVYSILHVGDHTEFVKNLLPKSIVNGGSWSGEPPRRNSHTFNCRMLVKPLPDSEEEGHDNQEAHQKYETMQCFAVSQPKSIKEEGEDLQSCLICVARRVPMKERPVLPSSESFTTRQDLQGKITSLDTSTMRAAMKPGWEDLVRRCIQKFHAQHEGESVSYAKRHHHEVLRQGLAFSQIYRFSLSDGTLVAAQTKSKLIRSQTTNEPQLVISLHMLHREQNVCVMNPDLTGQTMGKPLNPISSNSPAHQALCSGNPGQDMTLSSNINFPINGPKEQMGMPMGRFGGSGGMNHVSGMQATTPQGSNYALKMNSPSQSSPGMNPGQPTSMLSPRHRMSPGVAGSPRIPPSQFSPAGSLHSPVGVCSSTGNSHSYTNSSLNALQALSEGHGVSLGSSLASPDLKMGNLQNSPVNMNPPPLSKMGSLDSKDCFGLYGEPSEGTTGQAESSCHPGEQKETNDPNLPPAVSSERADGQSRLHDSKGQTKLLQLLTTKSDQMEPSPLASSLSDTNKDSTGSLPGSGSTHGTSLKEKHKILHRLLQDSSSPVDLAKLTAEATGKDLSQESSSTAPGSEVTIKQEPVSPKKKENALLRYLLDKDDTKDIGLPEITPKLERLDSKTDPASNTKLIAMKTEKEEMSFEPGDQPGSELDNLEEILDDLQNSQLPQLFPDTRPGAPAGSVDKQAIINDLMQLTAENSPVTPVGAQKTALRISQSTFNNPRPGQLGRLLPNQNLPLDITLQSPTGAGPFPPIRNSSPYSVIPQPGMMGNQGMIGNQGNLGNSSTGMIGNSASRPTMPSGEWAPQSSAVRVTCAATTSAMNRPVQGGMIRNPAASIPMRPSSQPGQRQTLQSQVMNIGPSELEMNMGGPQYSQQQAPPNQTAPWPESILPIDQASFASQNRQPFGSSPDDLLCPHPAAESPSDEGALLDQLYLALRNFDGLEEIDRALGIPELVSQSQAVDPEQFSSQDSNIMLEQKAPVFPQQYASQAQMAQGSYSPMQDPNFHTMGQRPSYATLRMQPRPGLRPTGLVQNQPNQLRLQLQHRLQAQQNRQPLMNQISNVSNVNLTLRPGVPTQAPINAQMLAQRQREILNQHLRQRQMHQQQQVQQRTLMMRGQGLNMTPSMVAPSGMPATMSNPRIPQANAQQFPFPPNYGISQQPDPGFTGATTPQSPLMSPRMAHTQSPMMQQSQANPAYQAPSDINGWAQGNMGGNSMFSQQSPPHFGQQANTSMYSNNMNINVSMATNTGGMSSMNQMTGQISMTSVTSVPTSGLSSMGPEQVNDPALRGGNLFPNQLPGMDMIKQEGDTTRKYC

For two substances, binding results are on record in article PMC6894885.

Results are given in words; binding and its absence hold for the method and conditions named. For some assays here: Binding seen in cells or lysates may run through a third protein. Some entries that bind do so weakly or less than the wild type.

Regarding “His-tagged RTA deletion His-C544-691 (from UniProt F5HCV3 544-691) (domain or fragment)”, the binding entry with GST-fused NCOA2 (human) is reported as “binds”.

Turning to “HA-tagged NCOA2, full length (from UniProt Q15596 1-1464)”, the binding entry in test [1] is “no binding”.
